Laboratory results from the supplement of paper PMC8728848.
This is one part of the list.

Columns and labels:
Experiment in all cases: glycan array binding signal (z-score within array); higher = stronger binding
Details in all cases: glycan notation: IUPAC condensed, linker removed
Fuc(a1-2)Gal = biological target: Fuc(a1-2)Gal
Outline: (§1)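 Columns mapping to the same glycan were averaged after glycan names were converted to IUPAC-condensed notation. The data come from 3228 arrays in the Consortium for Functional Glycomics database, limited to those with an available protein sequence. Binding is reported as a within-array Z-score averaged across arrays of one protein sequence and across linkers.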

Fuc(a1-2)Gal(b1-3)GalNAc = biological target: Fuc(a1-2)Gal(b1-3)GalNAc
Outline: as §1

[1] = biological target: Fuc(a1-2)Gal(b1-3)GalNAc(b1-3)Gal
Outline: as §1

[2] = biological target: Fuc(a1-2)Gal(b1-3)GalNAc(b1-3)Gal(a1-4)Gal(b1-4)Glc
Outline: as §1

[3] = biological target: Fuc(a1-2)Gal(b1-3)GalNAc(b1-4)[Neu5Ac(a2-3)]Gal(b1-4)Glc
Outline: as §1

Fuc(a1-2)Gal(b1-3)GlcNAc = biological target: Fuc(a1-2)Gal(b1-3)GlcNAc
Outline: as §1

[4] = biological target: Fuc(a1-2)Gal(b1-3)GlcNAc(b1-3)Gal(b1-4)Glc
Outline: as §1

[5] = biological target: Fuc(a1-2)Gal(b1-3)[Fuc(a1-4)]GlcNAc
Outline: as §1

Fuc(a1-2)Gal(b1-4)Glc = biological target: Fuc(a1-2)Gal(b1-4)Glc
Outline: as §1

Fuc(a1-2)Gal(b1-4)Glc6S = biological target: Fuc(a1-2)Gal(b1-4)Glc6S
Outline: as §1

Fuc(a1-2)Gal(b1-4)GlcNAc = biological target: Fuc(a1-2)Gal(b1-4)GlcNAc
Outline: as §1

[6] = biological target: Fuc(a1-2)Gal(b1-4)GlcNAc(b1-3)Gal(b1-4)GlcNAc
Outline: as §1

[7] = biological target: Fuc(a1-2)Gal(b1-4)GlcNAc(b1-3)Gal(b1-4)GlcNAc(b1-3)Gal(b1-4)GlcNAc
Outline: as §1

[8] = biological target: Fuc(a1-2)Gal(b1-4)GlcNAc6S
Outline: as §1

[9] = biological target: Fuc(a1-2)Gal(b1-4)[Fuc(a1-3)]GlcNAc
Outline: as §1

[10] = biological target: Fuc(a1-2)Gal(b1-4)[Fuc(a1-3)]GlcNAc(b1-3)Gal(b1-4)[Fuc(a1-3)]GlcNAc
Outline: as §1

[11] = biological target: Fuc(a1-2)Gal(b1-4)[Fuc(a1-3)]GlcNAc(b1-3)Gal(b1-4)[Fuc(a1-3)]GlcNAc(b1-3)Gal(b1-4)[Fuc(a1-3)]GlcNAc
Outline: as §1

Fuc(a1-2)Gal6S(b1-4)Glc = biological target: Fuc(a1-2)Gal6S(b1-4)Glc
Outline: as §1

[12] = biological target: Fuc(a1-2)Gal6S(b1-4)Glc6S
Outline: as §1

[13] = biological target: Fuc(a1-2)Gal6S(b1-4)GlcNAc
Outline: as §1

Fuc(a1-2)[Gal(a1-3)]Gal = biological target: Fuc(a1-2)[Gal(a1-3)]Gal
Outline: as §1

[14] = biological target: Fuc(a1-2)[Gal(a1-3)]Gal(b1-3)GlcNAc
Outline: as §1

[15] = biological target: Fuc(a1-2)[Gal(a1-3)]Gal(b1-4)Glc
Outline: as §1

[16] = biological target: Fuc(a1-2)[Gal(a1-3)]Gal(b1-4)GlcNAc
Outline: as §1

[17] = biological target: Fuc(a1-2)[Gal(a1-3)]Gal(b1-4)[Fuc(a1-3)]GlcNAc
Outline: as §1

[18] = biological target: Fuc(a1-2)[Gal(a1-4)]Gal(b1-4)GlcNAc
Outline: as §1

[19] = biological target: Fuc(a1-2)[GalNAc(a1-3)]Gal
Outline: as §1

[20] = biological target: Fuc(a1-2)[GalNAc(a1-3)]Gal(b1-3)GlcNAc
Outline: as §1

[21] = biological target: Fuc(a1-2)[GalNAc(a1-3)]Gal(b1-4)Glc
Outline: as §1

[22] = biological target: Fuc(a1-2)[GalNAc(a1-3)]Gal(b1-4)GlcNAc
Outline: as §1

B1: Angptl4 (Homo sapiens), Q9BY76 (protein)
chain: MSGAPTAGAALMLCAATAVLLSAQGGPVQSKSPRFASWDEMNVLAHGLLQLGQGLREHAERTRSQLSALERRLSACGSACQGTEGSTDLPLAPESRVDPEVLHSLQTQLKAQNSRIQQLFHKVAQQQRHLEKQHLRIQHLQSQFGLLDHKHLDHEVAKPARRKRLPEMAQPVDPAHNVSRLHRLPRDCQELFQVGERQSGLFEIQPQGSPPFLVNCKMTSDGGWTVIQRRHDGSVDFNRPWEAYKAGFGDPHGEFWLGLEKVHSITGDRNSRLAVQLRDWDGNAELLQFSVHLGGEDTAYSLQLTAPVAGQLGATTVPPSGLSVPFSTWDQDHDLRRDKNCAKSLSGGWWFGTCSHSNLNGQYFRSIPQQRQKLKKGIFWKTWRGRYYPLQATTMLIQPMAAEAAS
glycan array binding signal (z-score) (Fuc(a1-2)Gal): -0.084 | glycan array binding signal (z-score) (Fuc(a1-2)Gal(b1-3)GalNAc): -0.122 | glycan array binding signal (z-score) [1]: 5.26 | glycan array binding signal (z-score) [2]: -0.105 | glycan array binding signal (z-score) [3]: -0.11 | glycan array binding signal (z-score) (Fuc(a1-2)Gal(b1-3)GlcNAc): -0.55 | glycan array binding signal (z-score) [4]: -0.134 | glycan array binding signal (z-score) [5]: 0.847 | glycan array binding signal (z-score) (Fuc(a1-2)Gal(b1-4)Glc): 0.088 | glycan array binding signal (z-score) (Fuc(a1-2)Gal(b1-4)Glc6S): -0.343 | glycan array binding signal (z-score) (Fuc(a1-2)Gal(b1-4)GlcNAc): -0.071 | glycan array binding signal (z-score) [6]: -0.396 | glycan array binding signal (z-score) [7]: 0.616 | glycan array binding signal (z-score) [8]: 0.465 | glycan array binding signal (z-score) [9]: -0.311 | glycan array binding signal (z-score) [10]: -0.246 | glycan array binding signal (z-score) [11]: -0.407 | glycan array binding signal (z-score) (Fuc(a1-2)Gal6S(b1-4)Glc): -0.253 | glycan array binding signal (z-score) [12]: -0.059 | glycan array binding signal (z-score) [13]: -0.479 | glycan array binding signal (z-score) (Fuc(a1-2)[Gal(a1-3)]Gal): -0.253 | glycan array binding signal (z-score) [14]: 0.242 | glycan array binding signal (z-score) [15]: -0.199 | glycan array binding signal (z-score) [16]: 0.087 | glycan array binding signal (z-score) [17]: -0.192 | glycan array binding signal (z-score) [18]: -0.112 | glycan array binding signal (z-score) [19]: -0.107 | glycan array binding signal (z-score) [20]: 0.292 | glycan array binding signal (z-score) [21]: 0.454 | glycan array binding signal (z-score) [22]: -0.08
